Measurements taken from PubChem BioAssay (NCATS).
This list was built around the results that the source calls inconclusive (neither active nor inactive); the mix of calls is not that of the screen. For part of these data: A potency beside an inconclusive call is a rough fit, not a confirmed value. Active and inactive are the calls of the source. Calls come from the whole dose curve; as a rule, active = well fitted curve in the direction sought with a large enough effect; inconclusive = small, poorly fitted or top-dose-only effect, or another doubt; inactive = no such curve, though single readings can be large; an effect the other way counts as inactive or inconclusive.

Key:
CRL-7250 = normal cell line; experiment: Cytotoxic Profiling of Annotated Libraries Using Quantitative High-Throughput Screening (AID 1296008); conditions: Five cell lines viability, CellTiter-Glo ATP luminescence, 48-72 h; max response: active compounds read low; note: nearly all actives have a fitted effect of over 60% in size; for max response: % is set by controls: 0 for no effect and ±100 for the full control effect
How it was run: (§1)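 Cytotoxicity was measured as CellTiter-Glo ATP luminescence, read after 10 min at room temperature. Compound treatment of the cells lasted 48 or 72 hr at 37 degrees Celsius in a qHTS format.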

HaCat = experiment: as above; conditions: Five cell lines viability, CellTiter-Glo ATP luminescence, 48-72 h; max response: active compounds read low
How it was run: as §1

NIH3T3 = experiment: as above; conditions: Five cell lines viability, CellTiter-Glo ATP luminescence, 48-72 h; max response: active compounds read low
How it was run: as §1

CAOV3 = experiment: Primary qHTS to identify gynecologic anti-cancer compounds using libraries of approved drugs and bioactive compounds (AID 1345084); conditions: Gynecologic cancer cell panel viability, ATPlite luminescence, 48 h; activity change, negative = cytotoxicity: at 57.5 µM (top of the series); note: nearly all actives have a fitted effect of over 55% in size; for activity change, negative = cytotoxicity: % is set by controls: 0 for no effect and ±100 for the full control effect
How it was run: (§2)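 Cytotoxicity screen measuring ATP content by luciferase luminescence. Each compound is applied at five concentrations for 48 h at 37 C with 5% CO2.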

CASKI = experiment: as above; conditions: Gynecologic cancer cell panel viability, ATPlite luminescence, 48 h; series mostly up to 57.5 µM
How it was run: as §2

HeLa = experiment: as above; conditions: Gynecologic cancer cell panel viability, ATPlite luminescence, 48 h; activity change, negative = cytotoxicity: at 57.5 µM (top of the series)
How it was run: as §2

JEG-3 = experiment: as above; conditions: Gynecologic cancer cell panel viability, ATPlite luminescence, 48 h; series mostly up to 57.5 µM
How it was run: as §2

PA-1 = experiment: as above; conditions: Gynecologic cancer cell panel viability, ATPlite luminescence, 48 h; series mostly up to 57.5 µM
How it was run: as §2

SKOV3 = experiment: as above; conditions: Gynecologic cancer cell panel viability, ATPlite luminescence, 48 h; series mostly up to 57.5 µM
How it was run: as §2

Tov-21-G = experiment: as above; conditions: Gynecologic cancer cell panel viability, ATPlite luminescence, 48 h; activity change, negative = cytotoxicity: at 57.5 µM (top of the series) unless noted
How it was run: as §2

[1] = system: Zika virus NS2B-NS3 protease (unlinked complex); experiment: Primary screen GU Rhodamine qHTS for Zika virus inhibitors: Unlinked NS2B-NS3 protease assay (AID 1347159); note: nearly all actives have a fitted effect of over 60% in size
How it was run: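 Enzyme 25 nM in Tris-HCl pH 8.0 + 0.01% Tween 20; compounds up to 114 microM, 15 min RT dark; + Rhod110 substrate 1.5 microM; read t0 and 15 min; delta fluorescence → % inhibition → 4-parameter Hill fit.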

[2] = Primary qHTS for inhibitors of nuclear receptor binding SET domain protein 2 (NSD2) in an RCH-ACV wild type WT cells (2C) (AID 1645877); conditions: activity change, negative = cell killing: at 44.9 µM (top of the series) unless noted; note: nearly all actives have a fitted effect of over 70% in size
[3] = Primary fluorescence-based thiol-reactive (MSTI) qHTS assay for identification of artifact compounds. (AID 1845221);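 note: thiol-reactive compounds lower the probe fluorescence signal; nearly all actives have a fitted effect of over 65% in size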
How it was run: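 Curve-fitted percent inhibition (4-parameter Hill) derived from fluorescence, Ex 525/Em 598 nm, scaled with Acetyl-MSTI and MSTI; 1 h incubation at room temperature.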

Es-2 = experiment: Primary qHTS to identify gynecologic anti-cancer compounds using libraries of approved drugs and bioactive compounds (AID 1345084); conditions: Gynecologic cancer cell panel viability, ATPlite luminescence, 48 h; series mostly up to 57.5 µM; note: nearly all actives have a fitted effect of over 55% in size; for activity change, negative = cytotoxicity: % is set by controls: 0 for no effect and ±100 for the full control effect
How it was run: as §2

[4] = Primary qHTS for inhibitors of nuclear receptor binding SET domain protein 2 (NSD2) in an isogenic RCH-ACV NSD2 p.E1099K mutant (9B) (AID 1645876); note: nearly all actives have a fitted effect of over 70% in size
[5] = P-glycoprotein substrates identified in KB-8-5-11 adenocarcinoma cell line, qHTS therapeutic library screen (AID 1346987); note: nearly all actives have a fitted effect of over 65% in size
How it was run: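 Compounds are pinned in dose-response onto KB-8-5-11 cells (500 cells/well, colchicine-free medium) and left 72 h at 37 degree C. CellTiter-Glo luminescence then yields AC50 values.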

OV90 = experiment: Primary qHTS to identify gynecologic anti-cancer compounds using libraries of approved drugs and bioactive compounds (AID 1345084); conditions: Gynecologic cancer cell panel viability, ATPlite luminescence, 48 h; series mostly up to 57.5 µM; note: nearly all actives have a fitted effect of over 55% in size; for activity change, negative = cytotoxicity: % is set by controls: 0 for no effect and ±100 for the full control effect
How it was run: as §2

C33A = experiment: as above; conditions: Gynecologic cancer cell panel viability, ATPlite luminescence, 48 h; series mostly up to 57.5 µM
How it was run: as §2

Hek293T = experiment: as above; conditions: Gynecologic cancer cell panel viability, ATPlite luminescence, 48 h, control line for the selectivity index; activity change, negative = cytotoxicity: at 57.5 µM (top of the series) unless noted
How it was run: as §2

Tov112D = experiment: as above; conditions: Gynecologic cancer cell panel viability, ATPlite luminescence, 48 h; series mostly up to 57.5 µM
How it was run: as §2
Potency is the fitted concentration of half-maximal effect; tags give direction and shape of the fitted curve.

CC(=O)OC1C(=O)C2(C)C(O)CC3OCC3(OC(C)=O)C2C(OC(=O)c2ccccc2)C2(O)CC(OC(=O)C(O)C(NC(=O)c3ccccc3)c3ccccc3)C(C)=C1C2(C)C (stereo not given)
active: Potency (CRL-7250) 0.058 µM | Potency (NIH3T3) 0.092 µM
inconclusive: Potency (HaCat) 0.0092 µM [inhibitor, full curve, poor fit] | Potency (CAOV3) 3.98 µM [cytotoxic, partial curve, poor fit] | Potency (CASKI) 0.1 µM [cytotoxic, full curve, poor fit] | Potency (HeLa) 0.0891 µM | Potency (JEG-3) 100 nM [cytotoxic, full curve, poor fit] | Potency (PA-1) 100 µM | Potency (SKOV3) 0.1 µM | Potency (Tov-21-G) 0.1 µM

COc1c(Nc2ncc(Cl)c(N[C@H]3[C@@H](C(N)=O)[C@@H]4C=C[C@H]3C4)n2)ccc2c1CC[C@@H](N1CCOCC1)CC2
inconclusive: Potency (CRL-7250) 23.1 µM [inhibitor, single point] | Potency (HaCat) 5.8 µM [inhibitor, full curve, poor fit] | Potency (NIH3T3) 3.26 µM [inhibitor, full curve] | Potency (CAOV3) 3.55 µM [cytotoxic, single point] | Potency (SKOV3) 8.91 µM [cytotoxic, single point]

C=C(C)C(=O)O[C@H]1C[C@@](C)(O)C(=O)CC(O)/C(C)=C\[C@H]2OC(=O)C(=C)[C@H]12 (stereo not given in full)
inactive: max response (HaCat) -1.1%
inconclusive: Potency [1] 14.1 µM [inhibitor, full curve] | Potency (CRL-7250) 14.3 µM [inhibitor, single point] | Potency (NIH3T3) 20.2 µM [inhibitor, single point] | Potency (Es-2) 31.6 µM [cytotoxic, partial curve, poor fit] | Potency (PA-1) 25.1 µM [cytotoxic, single point] | Potency (SKOV3) 20 µM [cytotoxic, partial curve, poor fit] | Potency (Tov-21-G) 28.2 µM [cytotoxic, single point]
active: Potency [2] 1.27 µM | Potency [3] 2.93 µM

Cc1[nH]c2ccccc2c1C1=C(NCCc2ccc(F)cc2)C(=O)N(C)C1=O
active: Potency [4] 6.49 µM | Potency [2] 8.17 µM | Potency [3] 1.5 µM | Potency (HaCat) 8.2 µM | Potency (NIH3T3) 14.6 µM
inconclusive: Potency (CRL-7250) 7.31 µM [inhibitor, partial curve, poor fit] | Potency (PA-1) 14.1 µM [cytotoxic, partial curve]
inactive: Potency (HeLa)

Cc1ccc(S(=O)(=O)Nc2ccccc2N2CCCCC2)s1
inactive: max response (NIH3T3) 2.48% | Potency (OV90) | Potency (Tov-21-G)
inconclusive: Potency [5] 18.4 µM [inhibitor, single point] | Potency [1] 70.8 µM [inhibitor, partial curve, poor fit] | Potency [4] 29 µM [inhibitor, single point] | Potency [2] 29 µM [inhibitor, single point] | Potency [3] 1.19 µM [inhibitor, partial curve] | Potency (CRL-7250) 25.9 µM [inhibitor, single point] | Potency (HaCat) 29.1 µM [inhibitor, single point] | Potency (SKOV3) 39.8 µM [cytotoxic, single point]

CNC(=O)c1ccccc1Sc1ccc2c(C=Cc3ccccn3)n[nH]c2c1
inconclusive: Potency (CRL-7250) 3.32 µM [inhibitor, full curve] | Potency (HaCat) 2.96 µM [inhibitor, full curve]

Oc1ccc(-c2cnc3ccc(NCc4ccco4)nn23)cc1
inconclusive: Potency [5] 18.4 µM [inhibitor, single point] | Potency (CRL-7250) 29.1 µM [inhibitor, single point] | Potency (NIH3T3) 25.9 µM [inhibitor, single point] | Potency (C33A) 35.5 µM [cytotoxic, single point] | Potency (CAOV3) 35.5 µM [cytotoxic, single point] | Potency (CASKI) 39.8 µM [cytotoxic, single point] | Potency (Es-2) 35.5 µM [cytotoxic, single point] | Potency (HeLa) 39.8 µM [cytotoxic, single point] | Potency (Hek293T) 17.8 µM [cytotoxic, single point] | Potency (Tov-21-G) 35.5 µM [cytotoxic, single point] | Potency (Tov112D) 17.8 µM [cytotoxic, partial curve]
active: Potency (HaCat) 7.31 µM | Potency (PA-1) 28.2 µM | Potency (SKOV3) 14.1 µM
